Reference: the antibiotic and cytotoxicity screens of Wong et al. (2023)
The other results are listed elsewhere or left out.

How the values were obtained:
HSkMC = human skeletal muscle cells; test: cytotoxicity call (relative viability < 0.9); conditions: 10 µM
HepG2 = test: cytotoxicity call (relative viability < 0.9); conditions: 10 µM
S. aureus RN4220 = test: growth inhibition call (relative growth <= 0.2); conditions: 50 µM

CC1(C)[C@H]2CC[C@@]1(C)c1nn(-c3ccccc3)c(C(F)(F)F)c12
inactive: cytotoxicity call (HSkMC) | cytotoxicity call (HepG2) | growth inhibition call (S. aureus RN4220)

Cc1noc(C)c1S(=O)(=O)Nc1ccc2c(c1)CC(=O)N([C@@H](C)CO)C[C@@H](C)[C@@H](CN(C)S(=O)(=O)c1ccc(Cl)cc1)O2
inactive: cytotoxicity call (HSkMC) | cytotoxicity call (HepG2) | growth inhibition call (S. aureus RN4220)

Cc1noc(C)c1NC(=O)Nc1ccc2c(c1)CC(=O)N([C@H](C)CO)C[C@@H](C)[C@@H](CN(C)S(=O)(=O)c1cn(C)cn1)O2
inactive: cytotoxicity call (HSkMC) | cytotoxicity call (HepG2) | growth inhibition call (S. aureus RN4220)

COc1ccc(S(=O)(=O)Nc2ccc3c(c2)C(=O)N([C@H](C)CO)C[C@H](C)[C@@H](CN(C)S(=O)(=O)c2cccs2)O3)cc1
inactive: cytotoxicity call (HSkMC) | cytotoxicity call (HepG2) | growth inhibition call (S. aureus RN4220)

C[C@@H]1CN([C@H](C)CO)C(=O)c2ccccc2-c2ccccc2CO[C@H]1CN(C)S(=O)(=O)c1cn(C)cn1
inactive: cytotoxicity call (HSkMC) | cytotoxicity call (HepG2) | growth inhibition call (S. aureus RN4220)

C[C@@H]1CN([C@H](C)CO)C(=O)Cc2cc(NC(=O)Nc3ccc4c(c3)OCO4)ccc2O[C@H]1CN(C)S(C)(=O)=O
inactive: cytotoxicity call (HSkMC) | cytotoxicity call (HepG2) | growth inhibition call (S. aureus RN4220)

C[C@@H]1CCCCO[C@H](CN(C)C(=O)Nc2ccc3c(c2)OCO3)[C@H](C)CN([C@H](C)CO)C(=O)c2cc(NC(=O)Nc3ccccc3)ccc2O1
inactive: cytotoxicity call (HSkMC) | cytotoxicity call (HepG2) | growth inhibition call (S. aureus RN4220)

COc1ccc(-c2ccc3c(c2)O[C@@H](CN(C)CC2CCOCC2)[C@H](C)CN([C@@H](C)CO)S3(=O)=O)cc1
inactive: cytotoxicity call (HSkMC) | cytotoxicity call (HepG2) | growth inhibition call (S. aureus RN4220)

C[C@@H]1CCCCO[C@H](CN(C)C(=O)Nc2ccc3c(c2)OCO3)[C@@H](C)CN([C@H](C)CO)C(=O)c2cc(NC(=O)Nc3ccc(C(F)(F)F)cc3)ccc2O1
inactive: cytotoxicity call (HSkMC) | cytotoxicity call (HepG2) | growth inhibition call (S. aureus RN4220)
